Test results reported in the supplement of paper PMC3334620.
The full ranking holds about 33,000 sequences; the median of “E-score (-0.5 to 0.5)” is about -0.032, and the highest 2% start at about 0.36. This is one part of the list.

Target: T1, Sko1 (UniProt Q02100)
T1 sequence: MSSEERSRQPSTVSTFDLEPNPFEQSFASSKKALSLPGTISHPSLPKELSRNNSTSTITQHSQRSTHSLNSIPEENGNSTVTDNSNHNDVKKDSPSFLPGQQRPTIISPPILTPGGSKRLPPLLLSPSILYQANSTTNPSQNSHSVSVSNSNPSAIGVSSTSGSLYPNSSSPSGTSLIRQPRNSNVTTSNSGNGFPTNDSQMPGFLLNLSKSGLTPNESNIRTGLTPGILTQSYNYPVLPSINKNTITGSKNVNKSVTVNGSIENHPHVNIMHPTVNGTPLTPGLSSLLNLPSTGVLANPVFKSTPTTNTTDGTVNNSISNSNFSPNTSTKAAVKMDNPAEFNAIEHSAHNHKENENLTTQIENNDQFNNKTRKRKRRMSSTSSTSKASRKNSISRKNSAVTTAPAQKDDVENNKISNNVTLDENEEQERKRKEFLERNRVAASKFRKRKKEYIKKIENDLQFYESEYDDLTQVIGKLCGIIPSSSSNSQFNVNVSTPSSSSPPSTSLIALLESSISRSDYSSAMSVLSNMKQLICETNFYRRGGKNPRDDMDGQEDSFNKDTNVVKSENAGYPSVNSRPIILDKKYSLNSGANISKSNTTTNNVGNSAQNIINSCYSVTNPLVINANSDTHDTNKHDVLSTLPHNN
Test: PBM E-score (8-mer binding enrichment) (E-score (-0.5 to 0.5)); higher = stronger / more preferred TF binding; most listed sequences are background and not binding sites
Settings: protein concentration: 200 nM; construct: GST-full length
Outline: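 Masliner-normalised scans of fluorescent anti-GST signal were the basis for scoring. That signal came from GST-tagged yeast transcription factors applied at about 100-200 nM to double-stranded universal all-10-mer Agilent arrays on fresh or once-stripped slides. Each ungapped eight-base word, pooled with its reverse complement, received an E-score from the Universal PBM Analysis Suite.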

Sequence | PBM E-score
AAGAATTC | 0.0539
GTCTGAAC | -0.105
ACGTTTTC | 0.396
AAGGCGAA | -0.191
ATTAAAAA | 0.263
AGGCAACC | -0.234
CCAGTGAC | 0.053
ACCGGCAT | -0.0631
ATATGAAC | 0.204
GTCACGGA | 0.126
CAGATTGG | -0.256
ATATGGGG | -0.185
AAGATACA | 0.227
AAGAAGTA | 0.125
ATGGGGGC | -0.256
CAGTCCCC | -0.189
GGTCTGTA | -0.151
AGAGAGCG | -0.211
CACCAAGC | -0.208
CACAAATG | 0.0399
ACTAGACG | 0.197
CAACGGAA | 0.146
GCGGACCC | -0.294
GTACGGCA | 0.0279
GCTAGTGA | 0.132

Sequence | PBM E-score
CGGCGCAG | -0.153
ACCCTCAT | -0.158
AGTACCAC | -0.0712
CCGGTTAG | -0.0983
ATACTCCG | -0.0889
AACGAGTG | 0.0243
TAACAGGA | 0.149
GCCGATAC | -0.077
CGAAATGC | 0.0319
CACGCATC | 0.164
ACCCCCCT | -0.392
CAACAATA | 0.163
TACTGTCA | 0.0461
AGGATTCA | 0.048
CTACCGAA | -0.0488
CTCCAAGA | -0.189
CTGGAGTC | -0.208
CGCCTAAC | -0.145
ACTTCCCG | -0.215
GGCTAGTA | -0.116
AGTTAGGA | 0.078
ACCCTCGT | 0.0494
AATTGCGC | 0.3
CATGGTAA | 0.158
CTTTCCAC | 0.00853

Sequence | PBM E-score
ACGTATAC | 0.463
GTGCGACA | 0.0366
AGGAATGA | 0.135
ACGCAAGT | 0.315
AGTTAGTC | -0.103
CGCGGGAC | -0.281
CATGGCAC | -0.0589
CGTATCGA | 0.34
CGTGGGCA | 0.0649
CGTGAGAA | 0.117
CCACTCGA | -0.143
AACATTGA | 0.00267
CACTTCCG | -0.112
GTTGCCTA | -0.0373
CTGCCGCC | -0.36
CAAGTTGA | 0.0254
GACCATCA | -0.0829
AAAGTTAA | 0.314
ACTTATAC | 0.155
AAGTAAGT | 0.0641
AACGGCAG | -0.125
CAATTCTC | 0.0836
GATCTCGC | -0.102
ATTGTGTC | 0.157
ATAGAAAG | -0.115

Sequence | PBM E-score
GTTGGACA | 0.166
ATACCGCG | -0.0398
ATTTATTG | 0.0213
GAGCGCTC | -0.238
TACTATGA | 0.256
AGTCGGAC | -0.125
ATACCAAA | 0.093
CCCCGCCC | -0.0456
CCGATTTC | -0.355
AACTTCTC | 0.0726
ACAGATAG | 0.0196
ATGCACTC | -0.098
GCTGGGTA | -0.301
AACAGTAT | 0.216
ACTTATGG | -0.108
CCATTGAG | 0.00857
AACGTTCC | 0.0527
GGAGTTTA | -0.0493
CTTGAGAA | 0.107
ATTTCGTA | 0.372
TCCTACGA | -0.0486
TTCCCGAA | -0.0959
AGTGGGGA | -0.201
AAGCTCTC | -0.279
AGTTACTC | 0.0295

Sequence | PBM E-score
ATATTTTG | 0.157
ACTGTGTA | -0.0944
ACGCTATA | 0.132
AAATTGAC | 0.164
CCTTTTAG | -0.16
ATATATAA | 0.22
ATGTCTCA | -0.0854
CCCGTATA | -0.0573
ACTCTGCT | -0.197
CCACACTC | 0.00961
ATGCGAGC | -0.0993
ATACAAAA | 0.216
GCACGTAC | 0.34
ACACTTTC | -0.077
GCTGTGTA | 0.0368
CTCTAAGC | -0.0238
ACAAAGAC | 0.0779
CCCCCTCA | -0.35
CATAGGGA | -0.11
CCGAATAG | -0.145
ACCTAGGC | -0.177
CATCAGTC | -0.153
ACGTGGAT | 0.398
ACGCAGTG | 0.15
ACCCCAAC | -0.084

Sequence | PBM E-score
ATGTACAA | 0.0603
ACGGTACC | -0.0695
ACAATATA | 0.178
CTATGCAA | 0.0735
CTCCAGTA | -0.049
CGCTCCTC | -0.391
TAACCAGA | -0.0453
ACTGCCAT | 0.0307
ACCCTACG | 0.242
AGTCATAC | 0.262
ACCGGGAT | -0.257
CGTTCCGA | 0.0271
GCACATCC | -0.0686
ATCCTCTC | -0.187
GGGAGGCA | -0.185
GTCGCAAA | 0.0848
CGTACCCC | 0.127
ACAAAGAT | 0.118
AGGCTGTA | -0.0186
ACATTATC | 0.205
AATTCCTA | 0.138
CTAGGCAG | -0.298
ACACCGGT | -0.287
ACATGGAA | -0.00341
GAGTCACA | -0.0432

Sequence | PBM E-score
CCACAACA | -0.138
CGACCAGC | -0.0458
AGTCTTAA | -0.164
CCATAACA | 0.116
ATTGGGTC | -0.0606
ACCGCTCG | -0.216
CTAGCTAA | 0.141
GTTGAGTA | 0.102
CCCAGAAC | -0.0415
AGCGCGAC | -0.0623
ATTTCTAA | 0.0591
AATCCTAC | -0.0223
ATTCGGCA | -0.142
CATCAAGC | -0.0149
AGTCCAGC | -0.249
AACCTTTG | -0.0506
GGCCGCCC | -0.308
AAGCGTCA | 0.353
GGTTAACC | -0.177
CGATTCCA | -0.127
AACATTCC | 0.0401
CGAGGTTC | -0.0792
